# The campaign covered roughly 340,000 compounds. About 6,900 (2%) were called active. Cut-off read from the data, not from the text of the source: active = inhibition above about 30%; inactive = below that, where a call was filed. The list shows a part of the results, in another mix than the full data. Entries without a call were filed so in the source.
# Biological target: D(2) dopamine receptor (Homo sapiens) (UniProt P14416)
# Test: HTS Assay for Allosteric Antagonists of the Human D2 Dopamine Receptor: Primary Screen for Antagonists; note: 0% is about no effect
# Details: HEK293 TREx D2 cells, calcium flux, dopamine EC80; at 10 µM; stronger effect = higher value
# Method in brief: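 Overnight-induced (tetracycline, 30 C) HEK293 T-REx cells carrying force-coupled D2 receive a no-wash calcium dye, then compound, then EC80 dopamine at 180 s; signals are read kinetically throughout.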
# UniProt P14416, sequence (P14416 whole entry, looked up): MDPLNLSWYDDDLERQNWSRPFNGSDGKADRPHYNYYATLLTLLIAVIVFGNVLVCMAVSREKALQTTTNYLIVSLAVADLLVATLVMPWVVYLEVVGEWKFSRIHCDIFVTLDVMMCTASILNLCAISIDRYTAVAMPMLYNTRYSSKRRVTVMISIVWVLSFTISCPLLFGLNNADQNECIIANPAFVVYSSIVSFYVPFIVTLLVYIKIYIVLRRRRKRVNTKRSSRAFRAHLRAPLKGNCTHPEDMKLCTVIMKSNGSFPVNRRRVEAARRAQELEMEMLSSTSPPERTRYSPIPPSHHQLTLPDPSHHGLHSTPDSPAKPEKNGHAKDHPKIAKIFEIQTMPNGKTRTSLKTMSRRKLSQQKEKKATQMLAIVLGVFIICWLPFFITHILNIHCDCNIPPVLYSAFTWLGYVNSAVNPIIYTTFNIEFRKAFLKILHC
row,Structure (SMILES),inhibition
1,O=C(Cn1c(=O)c2ccccc2n2nncc12)Nc1cccc(F)c1,-10.8%
2,CCc1cccc(C)c1NC(=O)CCCN1C(=O)C(c2ccccc2)Oc2cccnc21 (stereo not drawn),-1.06%
3,CC1CCN(c2ccc(-c3nc(-c4ccccc4)no3)cc2[N+](=O)[O-])CC1,24.7%
4,COc1ccc(NC(=O)NCCn2nnc3cc(S(=O)(=O)N(C)C)ccc32)cc1,-3.98%
5,CCOC(=O)c1c(C)[nH]c(C)c1S(=O)(=O)N(C)CC(=O)NCc1cccc(Br)c1,0.968%
6,Cc1ccccc1Cn1cnc2nc3c(cc2c1=O)CC(C)CC3 (stereo not drawn),-14.2%
7,CCc1cccc(C)c1NC(=O)CCCn1nc(C)c2sc3ccccc3c2c1=O,3.35%
8,Cc1cc(N2CCCCC2)nc2ccc(NC(=O)/C=C/c3ccc(OCCC(C)C)cc3)cc12,7.15%
9,O=C(CSc1nc2ccsc2c(=O)n1-c1ccc(Br)cc1)NCc1ccccc1,-28.6%
10,O=C(CSc1nnc2scc(-c3ccccc3)n12)Nc1ccc(Cl)cc1,-18.9%
11,O=C(Nc1cccc(C(F)(F)F)c1)Nc1cccs1,-3.47%
12,Cc1ccccc1C(=O)N1CCC(N2CCN(Cc3ccc(F)cc3)C(=O)C2=O)CC1,5.6%
13,CCCCN(CC)C(=O)C1CCCN(c2ncnc3c2nc2n3CCCCC2)C1 (stereo not drawn),10.1%
14,CCOC(=O)c1ccc(NC(=O)c2ccc(CN3C(=O)CCn4nc(C)cc43)cc2)cc1,1.04%
15,Cc1cccc(NC(=O)CN2C(=O)CCn3nc(-c4cccn4C)cc32)c1C,-11%
16,COc1ccc(NC(=O)C2CCN(S(=O)(=O)c3cc(-c4noc(C)n4)ccc3C)CC2)cc1,18.9%
17,Cc1ccc(C)c(NC(=O)c2cc(S(=O)(=O)NCCc3ccccc3)ccc2F)c1,-2.45%
18,C=CCNC(=S)NNC(=O)CC12CC3CC(CC(C3)C1)C2,active: 33.6%
19,CCOC(=O)C1CCCN(C(=O)c2ccc3c(c2)N(Cc2ccc(Cl)cc2)C(=O)c2ccccc2S3=O)C1 (stereo not drawn),-12.3%
20,Cc1noc(/C=C/c2ccccc2F)c1S(=O)(=O)N1CCC(C(=O)Nc2ccc(C#N)cc2)CC1,-1.53%
21,COc1cccc(NC(=O)Nc2ccc3nc(N4CCN(C)CC4)cc(C)c3c2)c1,7.96%
22,CC1(C(=O)NNC(=O)c2ccc([N+](=O)[O-])cc2)CC1(Br)Br (stereo not drawn),active: 37.1%
23,COC(=O)c1ccccc1NC(=O)CN1CCN(C23CC4CC(CC(C4)C2)C3)CC1,active: 72.2%
24,Cc1nc(N2CCOCC2)[nH]c(=O)c1C(O)C(Cl)(Cl)Cl (stereo not drawn),active: 48.1%

row,Structure (SMILES),inhibition
1,Cc1ccc2c(CNC3CCCC3)c(C(=O)O)n(Cc3ccc(F)cc3)c2c1,17.9%
2,CN(C(=O)CSc1nc2ccccc2n1CC(=O)N(C)C1CCCCC1)c1ccccc1,15%
3,CC1=Nc2cc(C(=O)NC3CCCCC3)ccc2Sc2ccc(Cl)cc21,-10.9%
4,COc1ccc(NC(=O)c2coc(=O)c3ccccc23)cc1OC,-12.1%
5,CC1=C(c2ccc(C(C)C)cc2)S(=O)(=O)N=C1N1CCN(c2ccc(F)cc2)CC1,27.2%
6,O=C(CCCc1ccccc1)NC1CC(=O)N(c2ccc(Cl)cc2)C1 (stereo not drawn),12%
7,O=C(CCN1CCN(c2ccccc2)CC1)Nc1ccc2c(c1)OCO2,active: 108%
8,COc1ccccc1C(=O)n1nc(-c2cccnc2)nc1NCc1ccccc1,1.57%
9,Cc1ccc(OCC(=O)Nc2nnc(SCc3cc(=O)c4ccccc4[nH]3)s2)cc1C,6.7%
10,Cc1ccc(Cl)cc1NC(=O)c1ccc(NC(=O)N2CCSc3ncccc32)cc1,9.59%
11,CCOc1ccc(NC(=O)CN2CCN(c3ccccc3C)CC2)cc1S(=O)(=O)N1CCCC1,active: 34.7%
12,Cc1cccc(-c2nc3c4ccccc4nc(N4CCN(c5ccc(F)cc5)CC4)n3n2)c1,3.81%
13,Cc1cccc(N2CCN(Cc3cn(C)nc3-c3ccccc3F)CC2)n1,active: 30.4%
14,O=C(NCc1ccccc1Cl)c1ccc2c(c1)nnn2C1CCCC1,-27.2%
15,O=C(NC1(C(F)(F)F)C(=O)Nc2c1c(=O)[nH]c(=O)n2CCc1ccccc1)c1ccc(Cl)cc1 (stereo not drawn),-19.7%
16,CCCCC(=O)Nc1ccc2nc(SCC(=O)N3CCOCC3)sc2c1,-16.1%
17,COc1cc(NS(=O)(=O)c2ccc3[nH]c(=O)[nH]c3c2)cc(OC)c1,-3.84%
18,CCOc1ccc(NC(=O)CN2CCN(CC(=O)Nc3ccc(N(CC)CC)cc3)CC2)cc1,2%
19,COc1cccc2c1Oc1ncccc1N(c1ccc(C(=O)NCc3ccccc3C)s1)C2,-0.315%
20,Cc1ccc(NC(=O)c2c(C)oc3ncn(C)c(=O)c23)cc1F,21.5%
21,COc1ccccc1NC(=O)CSC1=Nc2ccccc2C2=NC(CC(=O)NCCc3ccccc3)C(=O)N12 (stereo not drawn),1.75%
22,CCOc1ccc(Nc2c(S(=O)(=O)c3ccc(C)cc3)cnc3cc(OC)c(OC)cc23)cc1,1.23%
23,CCc1ccccc1NC(=O)Cn1nnc(-c2nc(-c3ccncc3)no2)c1N,-6.41%
24,COc1cc(NS(=O)(=O)c2ccc3c(c2)CC(=O)N3)cc(OC)c1OC,-6.46%

# Reference: PubChem BioAssay AID485344 (National Center for Advancing Translational Sciences (NCATS), 2010)
